Kd, koff and kon data for one molecule are collected here from patent publication US20160046690A1 (ACCELERON PHARMA, published 2016).

For orientation: Kd means a measure of binding affinity in units of concentration. Read a high Kd as lower affinity. One may read the koff as the first-order rate constant of dissociation. For orientation: kon means the second-order rate constant of association.

Holding throughout (experiment): surface plasmon resonance
In general terms: In SPR one partner is held on a chip, and binding of the other changes the refractive index at the surface.

The target in assay [1] is T1, GDF11 (Natural ligand is a disulfide-linked homodimer; one subunit is given.).
T1 construct: also called BMP11
T1 chain: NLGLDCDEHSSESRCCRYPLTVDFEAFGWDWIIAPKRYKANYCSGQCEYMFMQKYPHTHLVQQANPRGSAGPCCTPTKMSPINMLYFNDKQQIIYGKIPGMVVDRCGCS

Assay [2] addresses T2, GDF8 (Natural ligand is a disulfide-linked homodimer; one subunit is given.).
T2 construct: also called myostatin

Assay [3] has as its target T3, Activin B (Activin B is a disulfide-linked homodimer of the beta-B subunit; one subunit is given.).
T3 chain: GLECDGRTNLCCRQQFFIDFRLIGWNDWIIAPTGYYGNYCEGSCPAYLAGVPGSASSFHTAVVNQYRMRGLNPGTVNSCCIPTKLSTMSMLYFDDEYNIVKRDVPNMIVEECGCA

For assay [4], the target named is T4, Activin A.
T4 sequence (P08476 311-426, species assumed, looked up): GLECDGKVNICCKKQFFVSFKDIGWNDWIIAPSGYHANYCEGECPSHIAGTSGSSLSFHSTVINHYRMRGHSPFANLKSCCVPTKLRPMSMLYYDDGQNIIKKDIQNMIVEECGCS

Assay [5] concerns the target T5, BMP10 (Natural ligand is a disulfide-linked homodimer; one subunit is given.).
T5 chain: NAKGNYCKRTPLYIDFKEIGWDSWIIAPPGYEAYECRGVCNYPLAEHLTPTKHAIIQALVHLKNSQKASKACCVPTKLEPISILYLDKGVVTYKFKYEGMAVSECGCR

In assay [6] the target is T6, BMP6 (Natural ligand is a disulfide-linked homodimer; one subunit is given.).
T6 chain: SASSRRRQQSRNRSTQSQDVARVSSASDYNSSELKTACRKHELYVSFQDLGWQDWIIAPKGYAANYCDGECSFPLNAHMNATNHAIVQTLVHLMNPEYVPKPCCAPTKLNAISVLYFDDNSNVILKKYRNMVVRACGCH

The target in assay [7] is T7, BMP9 (Natural ligand is a disulfide-linked homodimer; one subunit is given.).
T7 chain: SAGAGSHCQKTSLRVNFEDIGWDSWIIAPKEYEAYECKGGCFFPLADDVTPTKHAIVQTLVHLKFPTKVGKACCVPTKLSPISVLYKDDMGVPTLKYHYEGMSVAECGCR

B1: ActRIIB(L79D 25-131)-Fc (Fc fusion)
chain: ETRECIYYNANWELERTNQSGLERCEGEQDKRLHCYASWRNSSGTIELVKKGCWDDDFNCYDRQECVATEENPQVYFCCCEGNFCNERFTHLPEAGGPEVTYEPPPTG[human IgG1 Fc and a few adjoining residues omitted here]
notes: also called double-truncated variant ActRIIB(L79D 25-131)-Fc
Consider B1, for which the Kd in assay [1] was 0.074 nM; in assay [2] it was 0.2 nM; in assay [3] it was 0.62 nM; in assay [4] it was 23 nM; in assay [5], 0.087 nM; in assay [6], 0.09 nM. This molecule also registered an equilibrium dissociation constant (Kd) in assay [7] of 2.7 nM. The off-rate (koff) in assay [1] was determined as 0.000256 s⁻¹; in assay [2], 0.000242 s⁻¹; in assay [3], 0.00219 s⁻¹; in assay [4], 0.123 s⁻¹; in assay [5], 0.00145 s⁻¹; in assay [6], 0.000546 s⁻¹. The same molecule came in with a koff in assay [7] of 0.0137 s⁻¹. The on-rate constant (kon) in assay [1] amounted to 3.46e+06 M⁻¹ s⁻¹; in assay [2], 1.18e+06 M⁻¹ s⁻¹; in assay [3], 3.52e+06 M⁻¹ s⁻¹; in assay [4], 5.35e+06 M⁻¹ s⁻¹; in assay [5], 1.67e+07 M⁻¹ s⁻¹; in assay [6], 6.05e+06 M⁻¹ s⁻¹. For the same molecule, in assay [7], the kon is 5.04e+06 M⁻¹ s⁻¹.
